# Test results reported in the supplement of paper PMC8728848.
# Some of the results follow.
# B1: GS13455A-bfa-343-25-343 (Bacteroides fragilis) (protein)
# chain: KDEIQIVDQDTSWQMDNKYIEEDIREQLGIDPFTDLVYLGYYGNPYTQLEAINDLVNTTLVGKNELSFKVKVTKPYKEDIKVNLMKEDKLVTDFPEMAEGIPLFPSENCTFEGGVLKAGELETTVKLTLKDVEKLNNLSGYVMAIKLTMEGSHEHLAIARTRSSYFVKLNLSIRLDNIDSSNKKIEGKGFNKEISFKSDIRPDKLGSLNDGNFTANNWYTSNANNYLTIILPEKQSLKGFRLDTNTSPSGSYMLKSCRVMVETPDGNWVNHGVFDRKSMDGIAYISFKKPVECTKVRFENMMAFNGRFSVDVNEVTAFR
# What was measured:
# Experiment in all cases: glycan array binding signal (z-score within array); higher = stronger binding
# Conditions in all cases: glycan notation: IUPAC condensed, linker removed
# [1] = target: Fuc(a1-2)Gal
# In short: (§1)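 From the Consortium for Functional Glycomics database, 3228 arrays were curated, keeping only those whose protein sequence was available. Binding is given as a within-array Z-score averaged across arrays sharing a protein sequence and across linkers. Negative Z-scores can be read as non-binding.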
# [2] = target: Fuc(a1-2)Gal(b1-3)GalNAc
# In short: as §1
# [3] = target: Fuc(a1-2)Gal(b1-3)GalNAc(a1-3)[Fuc(a1-2)]Gal(b1-4)Glc
# In short: as §1
# [4] = target: Fuc(a1-2)Gal(b1-3)GalNAc(a1-3)[Fuc(a1-2)]Gal(b1-4)GlcNAc
# In short: as §1
# [5] = target: Fuc(a1-2)Gal(b1-3)GalNAc(b1-3)Gal
# In short: as §1
# [6] = target: Fuc(a1-2)Gal(b1-3)GalNAc(b1-3)Gal(a1-4)Gal(b1-4)Glc
# In short: as §1
# [7] = target: Fuc(a1-2)Gal(b1-3)GalNAc(b1-4)[Neu5Ac(a2-3)]Gal(b1-4)Glc
# In short: as §1
# [8] = target: Fuc(a1-2)Gal(b1-3)GlcNAc
# In short: as §1
# [9] = target: Fuc(a1-2)Gal(b1-3)GlcNAc(b1-2)Man(a1-3)[Fuc(a1-2)Gal(b1-3)GlcNAc(b1-2)Man(a1-6)]Man(b1-4)GlcNAc(b1-4)GlcNAc
# In short: as §1
# [10] = target: Fuc(a1-2)Gal(b1-3)GlcNAc(b1-2)Man(a1-3)[Fuc(a1-2)Gal(b1-3)GlcNAc(b1-2)Man(a1-6)]Man(b1-4)GlcNAc(b1-4)[Fuc(a1-6)]GlcNAc
# In short: as §1
# [11] = target: Fuc(a1-2)Gal(b1-3)GlcNAc(b1-3)Gal(b1-4)Glc
# In short: as §1
# [12] = target: Fuc(a1-2)Gal(b1-3)GlcNAc(b1-3)GalNAc
# In short: as §1
# [13] = target: Fuc(a1-2)Gal(b1-3)GlcNAc(b1-3)[Fuc(a1-2)Gal(b1-3)GlcNAc(b1-6)]GalNAc
# In short: as §1
# [14] = target: Fuc(a1-2)Gal(b1-3)GlcNAc(b1-3)[Gal(b1-4)GlcNAc(b1-6)]Gal(b1-4)Glc
# In short: as §1
# [15] = target: Fuc(a1-2)Gal(b1-3)GlcNAc(b1-3)[Neu5Ac(a2-6)Gal(b1-4)GlcNAc(b1-6)]Gal(b1-4)Glc
# In short: as §1
# [16] = target: Fuc(a1-2)Gal(b1-3)GlcNAc6S
# In short: as §1
# [17] = target: Fuc(a1-2)Gal(b1-3)[Fuc(a1-4)]GlcNAc
# In short: as §1
# [18] = target: Fuc(a1-2)Gal(b1-3)[Fuc(a1-4)]GlcNAc(b1-2)Man(a1-3)[Fuc(a1-2)Gal(b1-3)[Fuc(a1-4)]GlcNAc(b1-2)Man(a1-3)]Man(b1-4)GlcNAc(b1-4)GlcNAc
# In short: as §1
# [19] = target: Fuc(a1-2)Gal(b1-3)[Fuc(a1-4)]GlcNAc(b1-2)Man(a1-3)[Fuc(a1-2)Gal(b1-3)[Fuc(a1-4)]GlcNAc(b1-2)Man(a1-6)]Man(b1-4)GlcNAc(b1-4)[Fuc(a1-6)]GlcNAc(b1-4)[Fuc(a1-6)]GlcNAc
# In short: as §1
# [20] = target: Fuc(a1-2)Gal(b1-3)[Fuc(a1-4)]GlcNAc(b1-3)[Fuc(a1-3)[Gal(b1-4)]GlcNAc(b1-6)]Gal(b1-4)Glc
# In short: as §1
# [21] = target: Fuc(a1-2)Gal(b1-3)[Fuc(a1-4)]GlcNAc(b1-3)[Gal(b1-4)GlcNAc(b1-6)]Gal(b1-4)Glc
# In short: as §1
# [22] = target: Fuc(a1-2)Gal(b1-4)Glc
# In short: as §1
# [23] = target: Fuc(a1-2)Gal(b1-4)Glc6S
# In short: as §1
# [24] = target: Fuc(a1-2)Gal(b1-4)GlcNAc
# In short: as §1
# [25] = target: Fuc(a1-2)Gal(b1-4)GlcNAc(b1-2)Man
# In short: as §1
# [26] = target: Fuc(a1-2)Gal(b1-4)GlcNAc(b1-2)Man(a1-3)[Fuc(a1-2)Gal(b1-4)GlcNAc(b1-2)Man(a1-6)]Man(b1-4)GlcNAc(b1-4)GlcNAc
# In short: as §1
# [27] = target: Fuc(a1-2)Gal(b1-4)GlcNAc(b1-2)Man(a1-3)[Fuc(a1-2)Gal(b1-4)GlcNAc(b1-2)Man(a1-6)]Man(b1-4)GlcNAc(b1-4)[Fuc(a1-6)]GlcNAc
# In short: as §1
# [28] = target: Fuc(a1-2)Gal(b1-4)GlcNAc(b1-2)[Fuc(a1-2)Gal(b1-4)GlcNAc(b1-4)]Man(a1-3)[Fuc(a1-2)Gal(b1-4)GlcNAc(b1-2)Man(a1-6)]Man(b1-4)GlcNAc(b1-4)GlcNAc
# In short: as §1
# [29] = target: Fuc(a1-2)Gal(b1-4)GlcNAc(b1-3)Gal(b1-4)GlcNAc
# In short: as §1
# [30] = target: Fuc(a1-2)Gal(b1-4)GlcNAc(b1-3)Gal(b1-4)GlcNAc(b1-2)Man(a1-3)[Fuc(a1-2)Gal(b1-4)GlcNAc(b1-3)Gal(b1-4)GlcNAc(b1-2)Man(a1-6)]Man(b1-4)GlcNAc(b1-4)GlcNAc
# In short: as §1
# [31] = target: Fuc(a1-2)Gal(b1-4)GlcNAc(b1-3)Gal(b1-4)GlcNAc(b1-3)Gal(b1-4)GlcNAc
# In short: as §1
# [32] = target: Fuc(a1-2)Gal(b1-4)GlcNAc(b1-3)GalNAc
# In short: as §1
# [33] = target: Fuc(a1-2)Gal(b1-4)GlcNAc(b1-3)[Fuc(a1-2)Gal(b1-4)GlcNAc(b1-6)]GalNAc
# In short: as §1
# [34] = target: Fuc(a1-2)Gal(b1-4)GlcNAc(b1-3)[Fuc(a1-3)[Gal(b1-4)]GlcNAc(b1-6)]Gal(b1-4)Glc
# In short: as §1
# [35] = target: Fuc(a1-2)Gal(b1-4)GlcNAc(b1-6)GalNAc
# In short: as §1
# [36] = target: Fuc(a1-2)Gal(b1-4)GlcNAc6S
# In short: as §1
# [37] = target: Fuc(a1-2)Gal(b1-4)[Fuc(a1-3)]GlcNAc
# In short: as §1
binder,measurement,setting,value
B1,glycan array binding signal (z-score),[1],-0.592
same,glycan array binding signal (z-score),[2],0.368
same,glycan array binding signal (z-score),[3],-0.347
same,glycan array binding signal (z-score),[4],0.115
same,glycan array binding signal (z-score),[5],-0.261
same,glycan array binding signal (z-score),[6],-0.354
same,glycan array binding signal (z-score),[7],-0.834
same,glycan array binding signal (z-score),[8],0.593
same,glycan array binding signal (z-score),[9],-0.69
same,glycan array binding signal (z-score),[10],-0.058
same,glycan array binding signal (z-score),[11],-0.067
same,glycan array binding signal (z-score),[12],-0.048
same,glycan array binding signal (z-score),[13],-0.314
same,glycan array binding signal (z-score),[14],-0.195
same,glycan array binding signal (z-score),[15],0.11
same,glycan array binding signal (z-score),[16],0.206
same,glycan array binding signal (z-score),[17],-0.477
same,glycan array binding signal (z-score),[18],0.956
same,glycan array binding signal (z-score),[19],-0.263
same,glycan array binding signal (z-score),[20],0.296
same,glycan array binding signal (z-score),[21],-0.352
same,glycan array binding signal (z-score),[22],-0.243
same,glycan array binding signal (z-score),[23],-0.139
same,glycan array binding signal (z-score),[24],0.741
same,glycan array binding signal (z-score),[25],-0.282
same,glycan array binding signal (z-score),[26],-0.023
same,glycan array binding signal (z-score),[27],-0.87
same,glycan array binding signal (z-score),[28],-0.029
same,glycan array binding signal (z-score),[29],-0.734
same,glycan array binding signal (z-score),[30],0.565
same,glycan array binding signal (z-score),[31],0.02
same,glycan array binding signal (z-score),[32],-0.221
same,glycan array binding signal (z-score),[33],-0.235
same,glycan array binding signal (z-score),[34],-0.35
same,glycan array binding signal (z-score),[35],0.14
same,glycan array binding signal (z-score),[36],0.165
same,glycan array binding signal (z-score),[37],-0.329
